From the supplement of paper PMC10369915
This is one part of the list. Cut-off read from the data, not from the text of the source: active = 3.2 or more and inactive = the rest. The signal is at background level for most entries.

Columns and labels:
Assay in all cases: enrichment score (SH2-bound / input frequency) (ratio); bacterial display of known human phosphotyrosine sites (pTyr-Var adds point mutants) read by sequencing; higher = stronger binding; tyrosines were phosphorylated by kinases first
Details in all cases: peptide library: pTyr-Var
[1] = biological target: SHP2 C-SH2 domain E139D
[2] = biological target: SHP2 C-SH2 domain wild-type
[3] = biological target: SHP2 N-SH2 domain L43F
[4] = biological target: SHP2 N-SH2 domain T42A
[5] = biological target: SHP2 N-SH2 domain T52S
[6] = biological target: SHP2 N-SH2 domain wild-type
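Note: displayed peptides selected on beads carrying the immobilized SH2 domain, with library peptides lacking any tyrosine serving as negative controls.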

Binder: GRTGHYLCNAC [GATA1_Y223_D218G]
- enrichment score [1]: inactive: 1.35
- enrichment score [2]: inactive: 1.32
- enrichment score [3]: inactive: 1.29
- enrichment score [4]: inactive: 1.25
- enrichment score [5]: inactive: 1.1
- enrichment score [6]: inactive: 1.38

Binder: YRTGHYLCNAC [GATA1_Y223_D218Y]
- enrichment score [1]: inactive: 1.77
- enrichment score [2]: inactive: 1.65
- enrichment score [3]: inactive: 1.59
- enrichment score [4]: inactive: 1.27
- enrichment score [5]: inactive: 1.75
- enrichment score [6]: inactive: 1.25

Binder: PVFEVYPLLNC [GATA1_Y78_Q76E]
- enrichment score [1]: inactive: 0.898
- enrichment score [2]: inactive: 1.09
- enrichment score [3]: inactive: 0.91
- enrichment score [4]: inactive: 0.806
- enrichment score [5]: inactive: 0.756
- enrichment score [6]: inactive: 0.954

Binder: NARGLYYKLHN [GATA2_Y376_C373R]
- enrichment score [1]: inactive: 1.27
- enrichment score [2]: inactive: 1.11
- enrichment score [3]: inactive: 1.11
- enrichment score [4]: inactive: 1.1
- enrichment score [5]: inactive: 1.21
- enrichment score [6]: inactive: 1.44

Binder: NARGLYFKLHN [GATA2_Y376_C373R_YF]
- enrichment score [1]: inactive: 1.04
- enrichment score [2]: inactive: 1.21
- enrichment score [3]: inactive: 0.869
- enrichment score [4]: inactive: 0.857
- enrichment score [5]: inactive: 1.12
- enrichment score [6]: inactive: 1.17

Binder: DGTGHYLGNAC [GATA5_Y208_C210G]
- enrichment score [1]: inactive: 0.639
- enrichment score [2]: inactive: 0.752
- enrichment score [3]: inactive: 0.624
- enrichment score [4]: inactive: 0.576
- enrichment score [5]: inactive: 0.596
- enrichment score [6]: inactive: 0.828

Binder: EGTGHYLCNAC [GATA5_Y208_D203E]
- enrichment score [1]: inactive: 0.806
- enrichment score [2]: inactive: 0.687
- enrichment score [3]: inactive: 0.668
- enrichment score [4]: inactive: 0.589
- enrichment score [5]: inactive: 0.633
- enrichment score [6]: inactive: 0.747

Binder: DGTGRYLCNAC [GATA5_Y208_H207R]
- enrichment score [1]: inactive: 0.575
- enrichment score [2]: inactive: 0.527
- enrichment score [3]: inactive: 0.529
- enrichment score [4]: inactive: 0.488
- enrichment score [5]: inactive: 0.73
- enrichment score [6]: inactive: 0.697

Binder: TSSAIYMNLAS [GATAD2B_Y317]
- enrichment score [1]: inactive: 2.66
- enrichment score [2]: inactive: 2.35
- enrichment score [3]: inactive: 2.31
- enrichment score [4]: inactive: 2.33
- enrichment score [5]: inactive: 2.52
- enrichment score [6]: inactive: 2.19

Binder: ETAVHYIHDGI [GATD3A_Y250_L248V]
- enrichment score [1]: inactive: 0.822
- enrichment score [2]: inactive: 0.789
- enrichment score [3]: inactive: 0.811
- enrichment score [4]: inactive: 0.787
- enrichment score [5]: inactive: 0.657
- enrichment score [6]: inactive: 0.863

Binder: VKANTYEKYWP [GATM_Y100]
- enrichment score [1]: inactive: 0.897
- enrichment score [2]: inactive: 0.83
- enrichment score [3]: inactive: 0.816
- enrichment score [4]: inactive: 0.898
- enrichment score [5]: inactive: 0.762
- enrichment score [6]: inactive: 0.787

Binder: VKANTYENFWP [GATM_Y100_K102N_YF]
- enrichment score [1]: active: 3.3
- enrichment score [2]: active: 3.79
- enrichment score [3]: inactive: 3.14
- enrichment score [4]: active: 4.56
- enrichment score [5]: active: 3.88
- enrichment score [6]: active: 3.52

Binder: VKANTYEKYWL [GATM_Y100_P105L]
- enrichment score [1]: inactive: 0.963
- enrichment score [2]: inactive: 0.928
- enrichment score [3]: inactive: 0.857
- enrichment score [4]: inactive: 0.623
- enrichment score [5]: inactive: 0.909
- enrichment score [6]: inactive: 0.995

Binder: VKANTYEKFWL [GATM_Y100_P105L_YF]
- enrichment score [1]: inactive: 0.849
- enrichment score [2]: inactive: 1.16
- enrichment score [3]: inactive: 0.797
- enrichment score [4]: inactive: 0.885
- enrichment score [5]: inactive: 0.682
- enrichment score [6]: inactive: 0.982

Binder: VKANTYEKFWP [GATM_Y100_YF]
- enrichment score [1]: inactive: 1.14
- enrichment score [2]: inactive: 1.13
- enrichment score [3]: inactive: 0.833
- enrichment score [4]: inactive: 1.02
- enrichment score [5]: inactive: 0.819
- enrichment score [6]: inactive: 1.38

Binder: NTYEKYWLFYQ [GATM_Y103_P105L]
- enrichment score [1]: inactive: 1.37
- enrichment score [2]: inactive: 1.41
- enrichment score [3]: inactive: 1.38
- enrichment score [4]: inactive: 0.994
- enrichment score [5]: inactive: 1.07
- enrichment score [6]: inactive: 1.58

Binder: NTFEKYWLFFQ [GATM_Y103_P105L_YF]
- enrichment score [1]: inactive: 2.43
- enrichment score [2]: inactive: 2.28
- enrichment score [3]: inactive: 2.33
- enrichment score [4]: inactive: 2.25
- enrichment score [5]: inactive: 2.31
- enrichment score [6]: inactive: 2.52

Binder: QPRDIYHQTWA [GBA_Y244_G241R]
- enrichment score [1]: inactive: 0.818
- enrichment score [2]: inactive: 0.987
- enrichment score [3]: inactive: 0.792
- enrichment score [4]: inactive: 0.64
- enrichment score [5]: inactive: 0.842
- enrichment score [6]: inactive: 0.912

Binder: ITNLLYHVVSW [GBA_Y412_G416S]
- enrichment score [1]: active: 3.82
- enrichment score [2]: active: 3.44
- enrichment score [3]: inactive: 3.14
- enrichment score [4]: inactive: 2.86
- enrichment score [5]: inactive: 2.91
- enrichment score [6]: active: 3.38

Binder: ITSLLYHVVGW [GBA_Y412_N409S]
- enrichment score [1]: active: 3.21
- enrichment score [2]: inactive: 3.1
- enrichment score [3]: inactive: 2.91
- enrichment score [4]: inactive: 2.55
- enrichment score [5]: inactive: 2.65
- enrichment score [6]: inactive: 3.17

Binder: ITNLLYHVVGG [GBA_Y412_W417G]
- enrichment score [1]: inactive: 2.02
- enrichment score [2]: inactive: 1.83
- enrichment score [3]: inactive: 2
- enrichment score [4]: inactive: 1.63
- enrichment score [5]: inactive: 1.98
- enrichment score [6]: inactive: 1.75

Binder: TKVTFYKQPMF [GBA_Y451_D448V]
- enrichment score [1]: inactive: 0.88
- enrichment score [2]: inactive: 0.86
- enrichment score [3]: inactive: 0.85
- enrichment score [4]: inactive: 2.85
- enrichment score [5]: inactive: 1.14
- enrichment score [6]: inactive: 1.03

Binder: TKDTIYKQPMF [GBA_Y451_F450I]
- enrichment score [1]: inactive: 0.788
- enrichment score [2]: inactive: 0.971
- enrichment score [3]: inactive: 1.72
- enrichment score [4]: active: 3.71
- enrichment score [5]: inactive: 1.78
- enrichment score [6]: inactive: 1.12

Binder: TKDTFYQQPMF [GBA_Y451_K452Q]
- enrichment score [1]: inactive: 0.712
- enrichment score [2]: inactive: 0.583
- enrichment score [3]: inactive: 1.59
- enrichment score [4]: active: 3.74
- enrichment score [5]: inactive: 1.52
- enrichment score [6]: inactive: 0.764

Binder: LSVISYDLGMF [GBA3_Y174_M172I]
- enrichment score [1]: inactive: 1.77
- enrichment score [2]: inactive: 1.31
- enrichment score [3]: active: 6.78
- enrichment score [4]: inactive: 2.61
- enrichment score [5]: active: 7.64
- enrichment score [6]: inactive: 2.1

Binder: RAADYYSQQMA [GBP6_Y334]
- enrichment score [1]: inactive: 0.585
- enrichment score [2]: inactive: 0.642
- enrichment score [3]: inactive: 0.528
- enrichment score [4]: inactive: 0.468
- enrichment score [5]: inactive: 0.527
- enrichment score [6]: inactive: 0.746

Binder: RASDYYSQQMA [GBP6_Y334_A331S]
- enrichment score [1]: inactive: 0.723
- enrichment score [2]: inactive: 0.766
- enrichment score [3]: inactive: 0.818
- enrichment score [4]: inactive: 0.735
- enrichment score [5]: inactive: 0.673
- enrichment score [6]: inactive: 0.886

Binder: RASDFYSQQMA [GBP6_Y334_A331S_YF]
- enrichment score [1]: inactive: 0.704
- enrichment score [2]: inactive: 0.546
- enrichment score [3]: inactive: 0.648
- enrichment score [4]: inactive: 0.465
- enrichment score [5]: inactive: 0.69
- enrichment score [6]: inactive: 0.832

Binder: GISDEYHVIRH [GCDH_Y398]
- enrichment score [1]: inactive: 0.896
- enrichment score [2]: inactive: 0.785
- enrichment score [3]: inactive: 0.808
- enrichment score [4]: inactive: 0.68
- enrichment score [5]: inactive: 0.822
- enrichment score [6]: inactive: 0.903

Binder: GISDEYHVIWH [GCDH_Y398_R402W]
- enrichment score [1]: inactive: 1.04
- enrichment score [2]: inactive: 1
- enrichment score [3]: inactive: 0.987
- enrichment score [4]: inactive: 0.818
- enrichment score [5]: inactive: 0.886
- enrichment score [6]: inactive: 0.957

Binder: GISDEYHMIRH [GCDH_Y398_V400M]
- enrichment score [1]: inactive: 1.12
- enrichment score [2]: inactive: 0.856
- enrichment score [3]: inactive: 0.716
- enrichment score [4]: inactive: 0.698
- enrichment score [5]: inactive: 0.81
- enrichment score [6]: inactive: 0.929

Binder: SDVSSYLEGQA [GCG_Y110]
- enrichment score [1]: inactive: 0.659
- enrichment score [2]: inactive: 0.641
- enrichment score [3]: inactive: 0.615
- enrichment score [4]: inactive: 0.567
- enrichment score [5]: inactive: 0.692
- enrichment score [6]: inactive: 0.665

Binder: SDVSSYLEGQV [GCG_Y110_A115V]
- enrichment score [1]: inactive: 0.847
- enrichment score [2]: inactive: 0.984
- enrichment score [3]: inactive: 0.797
- enrichment score [4]: inactive: 0.813
- enrichment score [5]: inactive: 0.644
- enrichment score [6]: inactive: 0.687

Binder: RIVEIYSRRLQ [GCH1_Y175]
- enrichment score [1]: inactive: 0.217
- enrichment score [2]: inactive: 0.265
- enrichment score [3]: inactive: 0.228
- enrichment score [4]: inactive: 0.157
- enrichment score [5]: inactive: 0.321
- enrichment score [6]: inactive: 0.17

Binder: NFYEYYVDDPP [GCHFR_Y48]
- enrichment score [1]: inactive: 0.96
- enrichment score [2]: inactive: 1.02
- enrichment score [3]: inactive: 0.743
- enrichment score [4]: inactive: 0.938
- enrichment score [5]: inactive: 0.946
- enrichment score [6]: inactive: 0.746

Binder: NFYEYYVDDPL [GCHFR_Y48_P53L]
- enrichment score [1]: inactive: 1.16
- enrichment score [2]: inactive: 1.03
- enrichment score [3]: inactive: 0.932
- enrichment score [4]: inactive: 0.95
- enrichment score [5]: inactive: 1.08
- enrichment score [6]: inactive: 1.08

Binder: VDGSVYKLHPS [GCK_Y413]
- enrichment score [1]: inactive: 0.732
- enrichment score [2]: inactive: 0.759
- enrichment score [3]: inactive: 0.727
- enrichment score [4]: inactive: 0.597
- enrichment score [5]: inactive: 0.767
- enrichment score [6]: inactive: 1
